Results on 24 molecules are retold here after US20250092146A1 (ABILITA BIO, published 2025).

In assay [1] the target is T1, human CCR8 (hCCR8) (human, UniProt P51685 1-355).
T1 construct: On transfected HEK293/HEK293T cells, or naturally expressed on HuT-78 cells; also called C-C chemokine receptor type 8
Put plainly: flow cytometry on HEK293-hCCR8 cells, VHH-Fc. (In general: Flow cytometry measures light scatter and fluorescence of single cells or particles in a stream.)

In assay [2] the target is T1, human CCR8 (hCCR8). Kind of assay: flow cytometry on HEK293-hCCR8 cells, VHH-Fc; normalized to wild type VHH-1-Fc.
T1 sequence (P51685 whole entry, the tested form may be a part): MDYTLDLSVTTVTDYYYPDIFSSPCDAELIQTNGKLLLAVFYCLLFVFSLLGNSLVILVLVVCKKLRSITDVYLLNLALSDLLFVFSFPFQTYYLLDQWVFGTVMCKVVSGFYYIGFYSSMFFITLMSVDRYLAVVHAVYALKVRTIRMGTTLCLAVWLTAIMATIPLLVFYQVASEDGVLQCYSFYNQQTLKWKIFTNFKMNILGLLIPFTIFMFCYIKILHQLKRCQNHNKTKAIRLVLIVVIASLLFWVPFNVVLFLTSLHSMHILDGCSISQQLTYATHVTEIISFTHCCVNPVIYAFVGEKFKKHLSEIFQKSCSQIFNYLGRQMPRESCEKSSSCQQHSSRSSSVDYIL
The target of assay [3] is T1, human CCR8 (hCCR8). Kind of assay: flow cytometry on HuT-78 cells, VHH-Fc fusion.
Assay [4] has as its target T1, human CCR8 (hCCR8). Put plainly: flow cytometry on HuT-78 cells, VHH-Fc fusion; normalized to VHH-1.

B1: VHH-1-Fc D116A (Fc fusion)
chain: QVQLQESGGGLVQAGGSLRLSCVASGSTSSIRRIGWYRQAPGKQRELVARFSSGGGTNYADFVKGRFTISGDNAKNTMYLQMNSLKPEDTAVYYCSARRLLGTSRVAYWGQGTQVTVSS[human IgG1 Fc not given here]
notes: rest as VHH-1-Fc
Turning to B1, it took 1.33 nM to reach a half-maximal effect with human CCR8 (hCCR8) [1] (EC50). Also, the “% Bmax” value with human CCR8 (hCCR8) [2] was determined as 93%.

B2: VHH-1-Fc R37A (Fc fusion)
chain: QVQLQESGGGLVQAGGSLRLSCVASGSTSSIARIGWYRQAPGKQRELVARFSSGGGTNYADFVKGRFTISGDNAKNTMYLQMNSLKPEDTAVYYCSARRLLGTSRVDYWGQGTQVTVSS[human IgG1 Fc not given here]
notes: rest as VHH-1-Fc
Take B2: the EC50 (commonly the midpoint of the concentration-response curve) with human CCR8 (hCCR8) [1] turned out to be 4.59 nM. Also, the “% Bmax” value with human CCR8 (hCCR8) [2] was 82%.

B3: VHH-1-Fc S57A (Fc fusion)
chain: QVQLQESGGGLVQAGGSLRLSCVASGSTSSIRRIGWYRQAPGKQRELVARFASGGGTNYADFVKGRFTISGDNAKNTMYLQMNSLKPEDTAVYYCSARRLLGTSRVDYWGQGTQVTVSS[human IgG1 Fc not given here]
notes: rest as VHH-1-Fc
In the assay with human CCR8 (hCCR8) [1], B3 showed an EC50 of 1.25 nM. In addition, in the assay with human CCR8 (hCCR8) [2], the “% Bmax” value turned out to be 82%.

B4: VHH-1-Fc R107A (Fc fusion)
chain: QVQLQESGGGLVQAGGSLRLSCVASGSTSSIRRIGWYRQAPGKQRELVARFSSGGGTNYADFVKGRFTISGDNAKNTMYLQMNSLKPEDTAVYYCSAARLLGTSRVDYWGQGTQVTVSS[human IgG1 Fc not given here]
notes: rest as VHH-1-Fc
In the assay with human CCR8 (hCCR8) [1], B4 had an EC50 of 7.65 nM. For the same molecule, in the assay with human CCR8 (hCCR8) [2], the “% Bmax” value was found to be 48%.

B5: VHH-1-Fc R108A (Fc fusion)
chain: QVQLQESGGGLVQAGGSLRLSCVASGSTSSIRRIGWYRQAPGKQRELVARFSSGGGTNYADFVKGRFTISGDNAKNTMYLQMNSLKPEDTAVYYCSARALLGTSRVDYWGQGTQVTVSS[human IgG1 Fc not given here]
notes: rest as VHH-1-Fc
Consider B5, for which, in the assay with human CCR8 (hCCR8) [1], the EC50 came to 1.59 nM. Further, in the assay with human CCR8 (hCCR8) [2], the “% Bmax” value is 48%.

B6: VHH-1-Fc G64A (Fc fusion)
chain: QVQLQESGGGLVQAGGSLRLSCVASGSTSSIRRIGWYRQAPGKQRELVARFSSGGATNYADFVKGRFTISGDNAKNTMYLQMNSLKPEDTAVYYCSARRLLGTSRVDYWGQGTQVTVSS[human IgG1 Fc not given here]
notes: rest as VHH-1-Fc
In turn, B6 registered an EC50 in the assay with human CCR8 (hCCR8) [1] of 1.2 nM. Moreover, the “% Bmax” value with human CCR8 (hCCR8) [2] is 73%.

B7: VHH-1-Fc T112A (Fc fusion)
chain: QVQLQESGGGLVQAGGSLRLSCVASGSTSSIRRIGWYRQAPGKQRELVARFSSGGGTNYADFVKGRFTISGDNAKNTMYLQMNSLKPEDTAVYYCSARRLLGASRVDYWGQGTQVTVSS[human IgG1 Fc not given here]
notes: rest as VHH-1-Fc
As to B7, the EC50 in the assay with human CCR8 (hCCR8) [1] was determined as 1.26 nM. In the assay with human CCR8 (hCCR8) [2], the “% Bmax” value came out at 84%.

B8: VHH-1-Fc L110A (Fc fusion)
chain: QVQLQESGGGLVQAGGSLRLSCVASGSTSSIRRIGWYRQAPGKQRELVARFSSGGGTNYADFVKGRFTISGDNAKNTMYLQMNSLKPEDTAVYYCSARRLAGTSRVDYWGQGTQVTVSS[human IgG1 Fc not given here]
notes: rest as VHH-1-Fc
As to B8, the EC50 with human CCR8 (hCCR8) [1] is 3.6 nM. The “% Bmax” value with human CCR8 (hCCR8) [2] was 61%.

B9: VHH-1-Fc T29A (Fc fusion)
chain: QVQLQESGGGLVQAGGSLRLSCVASGSASSIRRIGWYRQAPGKQRELVARFSSGGGTNYADFVKGRFTISGDNAKNTMYLQMNSLKPEDTAVYYCSARRLLGTSRVDYWGQGTQVTVSS[human IgG1 Fc not given here]
notes: rest as VHH-1-Fc
In turn, B9 showed an EC50 with human CCR8 (hCCR8) [1] of 0.8 nM. For the same molecule, the “% Bmax” value with human CCR8 (hCCR8) [2] was determined as 45%.

B10: VHH-1-Fc T65A (Fc fusion)
chain: QVQLQESGGGLVQAGGSLRLSCVASGSTSSIRRIGWYRQAPGKQRELVARFSSGGGANYADFVKGRFTISGDNAKNTMYLQMNSLKPEDTAVYYCSARRLLGTSRVDYWGQGTQVTVSS[human IgG1 Fc not given here]
notes: rest as VHH-1-Fc
In the case of B10, the midpoint of the response with human CCR8 (hCCR8) [1], the EC50, lay at 1.23 nM. The “% Bmax” value in the assay with human CCR8 (hCCR8) [2] was found to be 70%.

B11: VHH-1-Fc S30A (Fc fusion)
chain: QVQLQESGGGLVQAGGSLRLSCVASGSTASIRRIGWYRQAPGKQRELVARFSSGGGTNYADFVKGRFTISGDNAKNTMYLQMNSLKPEDTAVYYCSARRLLGTSRVDYWGQGTQVTVSS[human IgG1 Fc not given here]
notes: rest as VHH-1-Fc
The molecule B11 yielded an EC50 in the assay with human CCR8 (hCCR8) [1] of 1.6 nM. In addition, the “% Bmax” value with human CCR8 (hCCR8) [2] came to 74%.

B12: VHH-1-Fc S27A (Fc fusion)
chain: QVQLQESGGGLVQAGGSLRLSCVASGATSSIRRIGWYRQAPGKQRELVARFSSGGGTNYADFVKGRFTISGDNAKNTMYLQMNSLKPEDTAVYYCSARRLLGTSRVDYWGQGTQVTVSS[human IgG1 Fc not given here]
notes: rest as VHH-1-Fc; Printed S27A
B12: in the assay with human CCR8 (hCCR8) [1], the EC50 was found to be 1.45 nM. Moreover, the “% Bmax” value in the assay with human CCR8 (hCCR8) [2] is 70%.

B13: VHH-1-Fc S105A (Fc fusion)
chain: QVQLQESGGGLVQAGGSLRLSCVASGSTSSIRRIGWYRQAPGKQRELVARFSSGGGTNYADFVKGRFTISGDNAKNTMYLQMNSLKPEDTAVYYCAARRLLGTSRVDYWGQGTQVTVSS[human IgG1 Fc not given here]
notes: rest as VHH-1-Fc
On to B13, for which the midpoint of the response with human CCR8 (hCCR8) [1], the EC50, lay at 3.12 nM. The “% Bmax” value in the assay with human CCR8 (hCCR8) [2] came to 62%.

B14: VHH-1-Fc G59A (Fc fusion)
chain: QVQLQESGGGLVQAGGSLRLSCVASGSTSSIRRIGWYRQAPGKQRELVARFSSAGGTNYADFVKGRFTISGDNAKNTMYLQMNSLKPEDTAVYYCSARRLLGTSRVDYWGQGTQVTVSS[human IgG1 Fc not given here]
notes: rest as VHH-1-Fc
Consider B14, for which a half-maximal effect with human CCR8 (hCCR8) [1] (EC50) was put at 1.28 nM. In the assay with human CCR8 (hCCR8) [2], the “% Bmax” value is 79%.

B15: VHH-1-Fc G63A (Fc fusion)
chain: QVQLQESGGGLVQAGGSLRLSCVASGSTSSIRRIGWYRQAPGKQRELVARFSSGAGTNYADFVKGRFTISGDNAKNTMYLQMNSLKPEDTAVYYCSARRLLGTSRVDYWGQGTQVTVSS[human IgG1 Fc not given here]
notes: rest as VHH-1-Fc
Regarding B15, the EC50 with human CCR8 (hCCR8) [1] turned out to be 1.13 nM. The “% Bmax” value with human CCR8 (hCCR8) [2] came out at 73%.

B16: VHH-1-Fc S35A (Fc fusion)
chain: QVQLQESGGGLVQAGGSLRLSCVASGSTSAIRRIGWYRQAPGKQRELVARFSSGGGTNYADFVKGRFTISGDNAKNTMYLQMNSLKPEDTAVYYCSARRLLGTSRVDYWGQGTQVTVSS[human IgG1 Fc not given here]
notes: rest as VHH-1-Fc
On to B16, for which a half-maximal effect with human CCR8 (hCCR8) [1] (EC50) was put at 1.26 nM. The “% Bmax” value with human CCR8 (hCCR8) [2] is 69%.

B17: VHH-1-Fc Y117A (Fc fusion)
chain: QVQLQESGGGLVQAGGSLRLSCVASGSTSSIRRIGWYRQAPGKQRELVARFSSGGGTNYADFVKGRFTISGDNAKNTMYLQMNSLKPEDTAVYYCSARRLLGTSRVDAWGQGTQVTVSS[human IgG1 Fc not given here]
notes: rest as VHH-1-Fc
Consider B17, for which the 50% effective concentration (EC50) in the assay with human CCR8 (hCCR8) [1] was 1.61 nM. The “% Bmax” value with human CCR8 (hCCR8) [2] was 82%.

B18: VHH-1-Fc S113A (Fc fusion)
chain: QVQLQESGGGLVQAGGSLRLSCVASGSTSSIRRIGWYRQAPGKQRELVARFSSGGGTNYADFVKGRFTISGDNAKNTMYLQMNSLKPEDTAVYYCSARRLLGTARVDYWGQGTQVTVSS[human IgG1 Fc not given here]
notes: rest as VHH-1-Fc
The molecule B18 gave an EC50 in the assay with human CCR8 (hCCR8) [1] of 3.77 nM. Also, the “% Bmax” value with human CCR8 (hCCR8) [2] worked out at 67%.

B19: VHH-1.3-1-Fc (Fc fusion)
chain: EVQLVESGGGLVQPGGSLRLSCAASGSTSSIRRIGWYRQAPGKGRELVARFSSGGSTNYADSVKGRFTISGDNSKNTMYLQMNSLRAEDTAVYYCSARRLLGTSRVDYWGQGTTVTVSS[human IgG1 Fc not given here]
notes: Against VHH-1.3 (IMGT): G64S
As to B19, the EC50 with human CCR8 (hCCR8) [3] is 2.03 nM. The “Normalized Bmax (%)” value with human CCR8 (hCCR8) [4] turned out to be 85.3%.

B20: VHH-1-Fc S58A (Fc fusion)
chain: QVQLQESGGGLVQAGGSLRLSCVASGSTSSIRRIGWYRQAPGKQRELVARFSAGGGTNYADFVKGRFTISGDNAKNTMYLQMNSLKPEDTAVYYCSARRLLGTSRVDYWGQGTQVTVSS[human IgG1 Fc not given here]
notes: rest as VHH-1-Fc
Turning to B20, the midpoint of the response with human CCR8 (hCCR8) [1], the EC50, lay at 1.11 nM. The “% Bmax” value in the assay with human CCR8 (hCCR8) [2] is 84%.

B21: VHH-1-Fc R38A (Fc fusion)
chain: QVQLQESGGGLVQAGGSLRLSCVASGSTSSIRAIGWYRQAPGKQRELVARFSSGGGTNYADFVKGRFTISGDNAKNTMYLQMNSLKPEDTAVYYCSARRLLGTSRVDYWGQGTQVTVSS[human IgG1 Fc not given here]
notes: rest as VHH-1-Fc
In the assay with human CCR8 (hCCR8) [1], B21 showed an EC50 of 2.47 nM. The “% Bmax” value with human CCR8 (hCCR8) [2] worked out at 69%.

B22: VHH-1-Fc R114A (Fc fusion)
chain: QVQLQESGGGLVQAGGSLRLSCVASGSTSSIRRIGWYRQAPGKQRELVARFSSGGGTNYADFVKGRFTISGDNAKNTMYLQMNSLKPEDTAVYYCSARRLLGTSAVDYWGQGTQVTVSS[human IgG1 Fc not given here]
notes: rest as VHH-1-Fc
For the molecule B22, the EC50 in the assay with human CCR8 (hCCR8) [1] was 16.4 nM. For the same molecule, in the assay with human CCR8 (hCCR8) [2], the “% Bmax” value is 78%.

B23: VHH-1-Fc G111A (Fc fusion)
chain: QVQLQESGGGLVQAGGSLRLSCVASGSTSSIRRIGWYRQAPGKQRELVARFSSGGGTNYADFVKGRFTISGDNAKNTMYLQMNSLKPEDTAVYYCSARRLLATSRVDYWGQGTQVTVSS[human IgG1 Fc not given here]
notes: rest as VHH-1-Fc
Regarding B23, the EC50 in the assay with human CCR8 (hCCR8) [1] turned out to be 10.6 nM. Moreover, the “% Bmax” value with human CCR8 (hCCR8) [2] stood at 77%.

B24: VHH-1-Fc V115A (Fc fusion)
chain: QVQLQESGGGLVQAGGSLRLSCVASGSTSSIRRIGWYRQAPGKQRELVARFSSGGGTNYADFVKGRFTISGDNAKNTMYLQMNSLKPEDTAVYYCSARRLLGTSRADYWGQGTQVTVSS[human IgG1 Fc not given here]
notes: rest as VHH-1-Fc
B24 gave an EC50 in the assay with human CCR8 (hCCR8) [1] of 7.19 nM. In addition, the “% Bmax” value with human CCR8 (hCCR8) [2] was 77%.
